The subject of one assay is MM.1R cells. In words: ADC internalization, flow cytometry. Type of assay: cell-based. The protocol:
Multiple myeloma cell lines (MM.1R or U-266) were bound with saturating concentrations of ADC (10 μg/mL), washed with media, and incubated at either 37° C. or 4° C. Time points were collected at which samples were stained with PE-labeled goat-anti-human antibody (Jackson ImmunoResearch, West Grove, Pa.) and fixed in 1% PFA/PBS. Once all time points were collected, the mean fluorescence intensity was measured on the FACs Calibur flow cytometer (BD BioSciences, San Jose, Calif.). The anti-NTB-A h20F3ec-1910(2) PBD dimer ADC rapidly internalized into MM.1R cells, with 80% of the ADC internalized within 4 hours at 37-C incubation. Only 20% of h20F3ec-1910(2) ADC was internalized at 4 hours when cells were kept at 4-C control condition.

For another assay, the system named is EJM. In words: ADC cytotoxicity, Cell Titer Glo, 96 hours. Format: cell-based. The settings on record: EJM (9800 NTB-A receptors/cell). How it is done:
(§1) Humanized antibodies (HDLD) were tested as PBD and auristatin antibody drug conjugates. The antimitotic agent monomethyl auristatin E (MMAE) was conjugated to anti-NTB-A mAbs via a cathepsin-cleavable valine-citrulline (vc) linker. A second auristatin, Auristatin-2 was conjugated to anti-NTB-A mAbs via a peptide linker. For the PBD conjugates, the drug-linker SGD-1910 was conjugated to the anti-NTBA antibody via a thiol group of a cysteine residue introduced at position 239 of the IgG1 chain of the antibody (numbering according to the EU Index) and the average drug load was about 2 drugs per antibody. Antibodies with cysteine at the 239 position carry the designation ec. Preparation was as described in WO2011/130613 using the anti-NTBA antibodies described herein. The ADCs were serially diluted 3-fold in media to produce a 10 point dose curve (1,000 ng/mL-0.05081 ng/mL) and applied to multiple myeloma cells cultured in 96-well assay plates. The cell lines were treated with anti-NTB-A ADCs in quadruplicate and incubated for 96 hours at 37° C., 5% CO2. Cells were assayed for viability using the Cell Titer Glo luminescent cytotoxicity assay (Promega), and data collected using an EnVision plate reader (Perkin Elmer). Dose effect curves and IC50 values were calculated using GraphPad Prism software.

Another assay relates to HEL92.1.7. Nature of the assay: ADC cytotoxicity, Cell Titer Glo, 96 hours. The settings on record: HEL92.1.7 (10200 NTB-A receptors/cell). Type of assay: cell-based. The protocol:
as §1

A further assay deals with HNT-34. In words: ADC cytotoxicity, Cell Titer Glo, 96 hours. Format: cell-based. The following applies: HNT-34 (57300 NTB-A receptors/cell). How it is done:
as §1

The next assay deals with LP-1. In words: ADC cytotoxicity, Cell Titer Glo, 96 hours. Format: cell-based. The settings on record: LP-1 (0 NTB-A receptors/cell). The protocol:
as §1

In the next assay the test system is Ramos. Nature of the assay: ADC cytotoxicity, Cell Titer Glo, 96 hours. The settings on record: Ramos (24500 NTB-A receptors/cell). Type of assay: cell-based. The protocol: as §1
The test system of a further assay is U-266 cells. In words: Disseminated multiple myeloma xenograft, U-266 in NSG mice. Format: in vivo. The following applies: 111 Ig/kg (single dose), intraperitoneal; n=10. The protocol: (§2) NSG (NOD scid gamma; NOD.Cg-Prkdc^scid Il2rg^tm1Wjl/SzJ) mice were implanted with 5 million U-266 cells per animal intravenously to generate a disseminated model of multiple myeloma. Five days after tumor cell implant, n=10 mice per treatment group were given a single intraperitoneal injection of h20F3ec-1910(2) PBD ADC or non-binding control hIgGec-1910(2) PBD ADC. PBD ADC dose levels examined were 111 Ig/kg, 56 μg/kg, and 28 μg/kg. Mice with advanced tumor burden were sacrificed upon showing symptoms of hind limb paralysis, cranial swelling, and/or moribundity.
as §2, with “either anti-NTB-A ADCs h20F3-vcMMAE(4), h20F3-Auristatin2(8),” for “h20F3ec-1910(2) PBD ADC”, “ADCs hIgG-vcMMAE(4) and hIgG-Auristatin2(8).” for “hIgGec-1910(2) PBD ADC. PBD”, “3.0 mg/kg,” for “111 Ig/kg, 56 μg/kg,”, “1.0 mg/kg.” for “28 μg/kg.”, “moribundity. […] The h20F3-Auristatin2(8) ADC produced 10/10 durable complete responses at both the 1.0 mg/kg and 3.0 mg/kg dose levels. […]” for “moribundity.”

The test system of the next assay is EJM cells. Nature of the assay: Disseminated multiple myeloma xenograft, EJM in NSG mice. Type of assay: in vivo. The settings on record: 333 μg/kg (single dose), intraperitoneal; n=10. The protocol:
(§3) NSG (NOD scid gamma; NOD.Cg-Prkdc^scid Il2rg^tm1Wjl/SzJ) mice were implanted with 10 million EJM cells per animal intravenously to generate a disseminated model of multiple myeloma. Five days after tumor cell implant, n=10 mice per treatment group were given a single intraperitoneal injection of h20F3ec-1910(2) PBD ADC or non-binding control hIgGec-1910(2) PBD ADC. PBD ADC dose levels examined were 333 μg/kg, 111 Ig/kg, and 37 μg/kg. Mice with advanced tumor burden were sacrificed upon showing symptoms of hind limb paralysis, cranial swelling, and/or moribundity.
as §3, with “either anti-NTB-A ADCs h20F3-vcMMAE(4), h20F3-Auristatin2(8),” for “h20F3ec-1910(2) PBD ADC”, “ADCs hIgG-vcMMAE(4) and hIgG-Auristatin2(8).” for “hIgGec-1910(2) PBD ADC. PBD”, “3.0 mg/kg,” for “333 μg/kg, 111 Ig/kg,”, “1.0 mg/kg.” for “37 μg/kg.”, “moribundity. […] The h20F3-Auristatin2(8) ADC produced 2/10 or 9/10 durable complete responses at the 1.0 mg/kg and 3.0 mg/kg dose levels, respectively.” for “moribundity.”

For assay [1], the system named is Raji non-Hodgkin lymphoma cells. Nature of the assay: Subcutaneous non-Hodgkin lymphoma xenograft, Raji in SCID mice. Type of assay: in vivo. The following applies: n=6. The protocol: SCID (C.B-17/Sz-Prkd^scid) mice were implanted with 5 million Raji non-Hodgkin lymphoma cells per animal subcutaneously. When mean tumor volume reached 100 mm^3, n=6 mice per treatment group were given a single intraperitoneal injection of h20F3ec-1910(2) PBD ADC or control hIgGec-1910(2) PBD ADC. PBD ADC dose levels examined were 100 ug/kg, 50 ug/kg, and 25 ug/kg. Individual mice were sacrificed when subcutaneous Raji tumor volume reached 1,000 mm^3.

B1: h20F3ec-1910(2) (conjugate)
heavy: QIQLVQSGSELKKPGASVKVSCKASGYTFTNYGMNWVRQAPGQDLKWMGWINTYSGEPRYADDFKGRFVFSLDKSVNTAYLQISSLKAEDTAVYYCARDYGRWYFDVWGQGTTVTVSS[sequence of human IgG1 constant region with changes omitted]
light: QIVLSQSPATLSLSPGERATMSCRASSSVSHMHWYQQKPGQAPRPWIYATSNLASGVPARFSGSGSGTDYTLTISSLEPEDFAVYYCQQWSSTPRTFGGGTKVEIKRTVAAPSVFIFPPSDEQLKSGTASVVCLLNNFYPREAKVQWKVDNALQSGNSQESVTEQDSKDSTYSLSSTLTLSKADYEKHKVYACEVTHQGLSSPVTKSFNRGEC
As for B1, the ADC internalized in the assay with MM.1R cells (at 4 hours, cells kept at 4 C control condition) turned out to be 20%; in the assay with MM.1R cells (within 4 hours at 37 C, 10 μg/mL ADC), 80%. For the same molecule, the IC50 in the assay on EJM was above 1000 ng/mL; in the assay on HEL92.1.7, 2 ng/mL; in the assay on HNT-34, 0.5 ng/mL; in the assay with LP-1 it was above 1000 ng/mL; in the assay on Ramos, 0.8 ng/mL. Further, the durable complete responses is 9/10 with U-266 cells, 8/10 in the assay with EJM cells, 4/6 in assay [1] (50 ug/kg single ip dose) and “all mice” in [1] (100 ug/kg single ip dose). In addition, in [1] (25 ug/kg single ip dose), the tumor growth result is recorded as “tumor growth delay”.

Values taken from patent US20230218776A1, “ANTI-NTB-A ANTIBODIES AND RELATED COMPOSITIONS AND METHODS” (SEAGEN INC., priority 2015, published 2023).
